In the BET-seq Pho4 binding data (Le et al. 2018):
Some of the results follow. These are noisy estimates, calculated here from bound and input reads.

target: T1, Pho4 (S. cerevisiae) (UniProt P07270); assay: relative binding free energy (BET-seq); higher = weaker binding; conditions: reference: library average
T1 sequence: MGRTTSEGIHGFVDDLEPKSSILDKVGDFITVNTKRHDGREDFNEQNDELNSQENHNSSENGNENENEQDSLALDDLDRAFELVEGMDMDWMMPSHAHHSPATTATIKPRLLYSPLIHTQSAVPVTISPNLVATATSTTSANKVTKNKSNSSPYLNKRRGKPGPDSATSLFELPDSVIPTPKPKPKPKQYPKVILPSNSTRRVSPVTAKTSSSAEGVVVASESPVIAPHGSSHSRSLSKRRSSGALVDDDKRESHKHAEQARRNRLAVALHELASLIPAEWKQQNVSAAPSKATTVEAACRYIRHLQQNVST

Sequence | relative binding free energy [kcal/mol]
TCGGACACGTGTGATT | 0.3
AGAAACACGTGGTGTA | -0.02
AATGACACGTGGGGCG | 0.01
GGCAGCACGTGGGTCG | -0.23
CACGTCACGTGGGGTG | -0.16
TTTTACACGTGTTTGT | 0.1
TGTAGCACGTGTGTTT | 0.04
AGAGTCACGTGAGTAT | 0.12
TGGTACACGTGGCCTT | -0.05
AAAGTCACGTGTAGGC | 0.13
AGAATCACGTGGGAGT | 0.08
TCTATCACGTGGGTCG | 0.04
CGTTTCACGTGGTCAG | 0.11
GTGGGCACGTGGTGGG | -0.05
TAAGTCACGTGTCGGT | 0.11
GGGAACACGTGGAATG | 0.09
CATGTCACGTGTATAT | 0.07
GTTTGCACGTGACTGA | 0.21
TGAAGCACGTGTTAAG | -0.01
TTCTGCACGTGTAATT | 0.11
CTGGTCACGTGGGGCA | -0.03
CCGGCCACGTGGGGGT | -0.33
GATGGCACGTGGAGAG | -0.07
GGTACCACGTGGGTAT | -0.22
GTACACACGTGTATGT | 0.14

Sequence | relative binding free energy [kcal/mol]
TAGTTCACGTGAGATA | 0.43
TGCGGCACGTGGCGCG | -0.17
GGTTACACGTGAGTTG | 0.24
TAGCGCACGTGGGGAA | -0.23
ATTTTCACGTGAAATA | 0.35
TTTGTCACGTGCGGGG | -0.03
GTGTGCACGTGGGGCA | -0.06
CGCGGCACGTGTTGTG | -0.27
TAAGTCACGTGTGGTC | 0.01
CGAGTCACGTGGGCGT | -0.03
CAGGTCACGTGACGGT | 0.2
AGTCACACGTGACGGG | 0.31
TGGTACACGTGGTCAG | -0.01
AAGAGCACGTGACGGT | 0.03
AGGGTCACGTGTGAAG | 0.16
TTACGCACGTGAAGGA | 0.28
GGTAGCACGTGGCGGG | -0.11
CTGCGCACGTGGTAGT | -0.24
TAGTTCACGTGAAATA | 0.52
TGGTGCACGTGGTCGC | -0.09
TTGGACACGTGTCAGT | 0.06
TGGATCACGTGAAGGC | 0.39
TGAGACACGTGGCTTT | 0.02
GTGTTCACGTGGCGTA | 0.21
GTCGTCACGTGAGGAT | 0.24

Sequence | relative binding free energy [kcal/mol]
GGGTCCACGTGTGGTT | 0.05
ATGGACACGTGCGTTT | -0.02
GGAGACACGTGTTGAA | 0.18
ATGTGCACGTGTCTGA | -0.19
TTAATCACGTGAGGTT | 0.33
TTGTACACGTGTCATT | 0.04
TTCAGCACGTGTTGTT | -0.1
ATGACCACGTGGGATG | -0.06
GTGGTCACGTGATGAT | 0.23
ATATTCACGTGTCGGG | 0.28
CGGATCACGTGGGCAG | -0.02
ATTTACACGTGTTTTT | 0.14
GGTGTCACGTGCGACT | 0.16
TCTTCCACGTGGTTGT | 0.06
AGATACACGTGTAGCT | 0.23
TGTAACACGTGCGTTG | -0.03
TTATGCACGTGTCTGG | -0.02
TGGTGCACGTGCTCAT | -0.03
TGATTCACGTGAAATG | 0.3
GTAATCACGTGGCGTG | -0.01
ATTCACACGTGGTGTG | -0.05
GGGGCCACGTGTTGAA | 0.04
ACGTTCACGTGGTATA | 0.17
CGGCCCACGTGGGGGG | -0.32
CGTCGCACGTGGGATG | -0.22

Sequence | relative binding free energy [kcal/mol]
AAGTGCACGTGGGAGG | -0.1
CATTGCACGTGTTGGG | 0
AGTGTCACGTGCATAT | 0.02
CTTGGCACGTGAACGG | 0.12
GTTAACACGTGGTTAA | 0.07
GGGATCACGTGGATGG | 0.25
AGGCACACGTGGTGCG | -0.12
TGTCACACGTGGATGG | -0.01
GACGTCACGTGAGTGG | 0.38
TGCCGCACGTGCGGTG | -0.03
TGCTGCACGTGGACGG | -0.09
AGGGGCACGTGGATGG | -0.08
ATTGTCACGTGGGATG | 0
CGGATCACGTGTTGGC | 0.24
ATTTACACGTGAGATT | 0.32
TGAATCACGTGGCGGA | 0.14
GTTTACACGTGTCTTG | 0.17
TTGTGCACGTGTAGTA | -0.03
ATAAACACGTGGGGGG | -0.2
AATTGCACGTGGTGGG | -0.1
AAAATCACGTGTGGGA | 0.28
TGTCTCACGTGATTGT | 0.29
CTAAACACGTGGGTGT | -0.14
GAGATCACGTGGTAAG | 0.23
CGTATCACGTGAGGCT | 0.33

Sequence | relative binding free energy [kcal/mol]
AGGCACACGTGTAGTT | 0.11
TGGTGCACGTGAAACT | 0.24
TGATGCACGTGAGGGC | 0.03
ATATGCACGTGGTACG | -0.15
GGAGTCACGTGGACTG | 0.16
TGTCTCACGTGTATTG | 0.14
CGGGACACGTGAACGG | 0.45
GTATTCACGTGGATTA | 0.3
GAGTACACGTGTTTGA | 0.16
AGGTTCACGTGGTCTG | 0.32
AATGACACGTGAGGTT | 0.31
GGTTCCACGTGTTGGA | 0.16
TGTGTCACGTGACAAG | 0.29
GAAATCACGTGGGCTG | 0.12
TGGTACACGTGTGGCG | 0.14
TAATGCACGTGAGAAT | 0.32
CATGTCACGTGCATGT | 0.09
AAGGGCACGTGTCGTA | -0.17
AAGAGCACGTGAAGGG | 0.25
TGCTTCACGTGGGGTA | 0.01
TATGTCACGTGGTCGC | 0.08
TTTAACACGTGGAGGT | 0.04
TTGCGCACGTGATTGG | 0.21
GTAATCACGTGTGTAT | 0.37
AGGTGCACGTGTTTGA | 0

Sequence | relative binding free energy [kcal/mol]
AGTACCACGTGGCGGG | -0.18
CGAGTCACGTGGGTTA | 0
GGTAGCACGTGCTGAG | -0.04
AGGGACACGTGTCGTT | -0.08
TTGCGCACGTGTAGGA | -0.06
ACGGCCACGTGGGTGG | -0.26
ATATACACGTGATATG | -0.01
TATTGCACGTGCATAG | -0.08
GTGGGCACGTGAACTT | 0.16
ATGGTCACGTGGGTGG | 0.06
GTGAGCACGTGAACTG | 0.3
GGACGCACGTGAAGGT | 0.33
ACTGTCACGTGAGGTA | 0.26
GAGGGCACGTGCGGCG | -0.28
TGAGGCACGTGATGGT | 0.02
CTAGGCACGTGCGTAG | -0.16
TGATACACGTGGGAAG | -0.08
ATTTACACGTGGGTTA | -0.01
AATGGCACGTGGGTCG | -0.12
AGTGACACGTGGAGGG | 0.04
TCTGTCACGTGTGTAC | 0.11
